Inconclusive results, whose numbers are uncertain, are shown with a selection of clear calls. For part of these data: Where the call is inconclusive, the potency comes from a doubtful curve fit. Active and inactive are the calls of the source. Calls follow the shape of the dose curve; as a rule, active = well fitted curve in the direction sought with a large enough effect in the repeat runs; inconclusive = weak or mixed curves; inactive = no such curve, though single readings can be large; an effect the other way counts as inactive or inconclusive.
Key:
[1] = Caspase-3/7 induction in CHO-K1 cells by small molecules, qHTS cell viability counter screen (AID 1346979); also: nearly all actives have a fitted effect of over 35% in size; also: potency is read from the fitted curve at half-maximal effect
Procedure, shortened: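 Wild-type CHO-K1 cells were seeded at 1,500 per well, rested 5hr at 37 C, then exposed to compounds in DMSO. After 16hr, CellTiter-Fluor reagent was added and fluorescence read 1hr later as the viability measure.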

[2] = target: Cytochrome P450 2D6 (Homo sapiens) (UniProt P10635); test: Cytochrome P450 Family 2 Subfamily D Member 6 (CYP2D6) small molecule antagonists: luciferase reporter qHTS assay (AID 1671196); also: nearly all actives have a fitted effect of over 50% in size; also: potency is read from the fitted curve at half-maximal effect
UniProt P10635, sequence (P10635 whole entry, looked up): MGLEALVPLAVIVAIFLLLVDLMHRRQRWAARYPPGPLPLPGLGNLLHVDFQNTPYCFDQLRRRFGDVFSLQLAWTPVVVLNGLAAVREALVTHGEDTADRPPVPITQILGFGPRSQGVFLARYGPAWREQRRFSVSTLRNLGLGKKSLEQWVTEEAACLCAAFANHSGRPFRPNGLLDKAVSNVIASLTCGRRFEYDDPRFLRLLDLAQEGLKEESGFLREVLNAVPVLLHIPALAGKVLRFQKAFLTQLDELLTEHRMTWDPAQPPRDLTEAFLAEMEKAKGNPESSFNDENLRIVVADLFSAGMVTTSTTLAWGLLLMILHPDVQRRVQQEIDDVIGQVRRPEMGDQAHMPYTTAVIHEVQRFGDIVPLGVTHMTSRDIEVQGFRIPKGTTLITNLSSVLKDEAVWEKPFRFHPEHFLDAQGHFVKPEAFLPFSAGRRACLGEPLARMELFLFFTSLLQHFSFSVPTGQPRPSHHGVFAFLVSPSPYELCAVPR
Procedure, shortened: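 Enzyme and proluciferin substrate were first combined with test chemical for 10 min at room temperature. Adding NADPH regeneration solution started a 1 h reaction, stopped with luciferin detection reagent and read by luminescence 20 min later.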

[3] = target: Cytochrome P450 2C19 (Homo sapiens) (UniProt P33261); test: Cytochrome P450 Family 2 Subfamily C Member 19 (CYP2C19) small molecule antagonists: luciferase reporter qHTS assay (AID 1671197); also: potency is read from the fitted curve at half-maximal effect; nearly all actives have a fitted effect of over 65% in size
UniProt P33261, sequence (P33261 whole entry, looked up): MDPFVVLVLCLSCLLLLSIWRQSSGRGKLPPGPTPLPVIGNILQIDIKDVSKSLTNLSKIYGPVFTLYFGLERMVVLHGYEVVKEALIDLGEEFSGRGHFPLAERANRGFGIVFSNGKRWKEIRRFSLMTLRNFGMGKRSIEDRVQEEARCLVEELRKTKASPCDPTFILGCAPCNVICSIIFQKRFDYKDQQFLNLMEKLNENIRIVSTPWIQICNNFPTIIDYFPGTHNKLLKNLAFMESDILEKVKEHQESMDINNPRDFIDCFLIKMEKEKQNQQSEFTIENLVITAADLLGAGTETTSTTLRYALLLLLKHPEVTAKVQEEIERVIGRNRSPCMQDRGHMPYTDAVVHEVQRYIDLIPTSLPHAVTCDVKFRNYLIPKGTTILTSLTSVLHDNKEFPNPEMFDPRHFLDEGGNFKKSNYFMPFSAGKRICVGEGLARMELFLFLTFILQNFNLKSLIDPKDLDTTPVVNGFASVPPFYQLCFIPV
Procedure, shortened: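 Luminescent readout of CYP2C19 activity: luciferin product detected 20 min after adding detection reagent. Before that, compound and enzyme-substrate mix preincubated 10 min at room temperature; NADPH-regenerating system started a 1 h, 37C reaction. Ketoconazole as positive control.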

[4] = target: Cytochrome P450 2C9 (Homo sapiens) (UniProt P11712); test: Cytochrome P450 Family 2 Subfamily C Member 9 (CYP2C9) small molecule antagonists: luciferase reporter qHTS assay (AID 1671198); also: nearly all actives have a fitted effect of over 50% in size; also: potency is read from the fitted curve at half-maximal effect
UniProt P11712, sequence (P11712 whole entry, looked up): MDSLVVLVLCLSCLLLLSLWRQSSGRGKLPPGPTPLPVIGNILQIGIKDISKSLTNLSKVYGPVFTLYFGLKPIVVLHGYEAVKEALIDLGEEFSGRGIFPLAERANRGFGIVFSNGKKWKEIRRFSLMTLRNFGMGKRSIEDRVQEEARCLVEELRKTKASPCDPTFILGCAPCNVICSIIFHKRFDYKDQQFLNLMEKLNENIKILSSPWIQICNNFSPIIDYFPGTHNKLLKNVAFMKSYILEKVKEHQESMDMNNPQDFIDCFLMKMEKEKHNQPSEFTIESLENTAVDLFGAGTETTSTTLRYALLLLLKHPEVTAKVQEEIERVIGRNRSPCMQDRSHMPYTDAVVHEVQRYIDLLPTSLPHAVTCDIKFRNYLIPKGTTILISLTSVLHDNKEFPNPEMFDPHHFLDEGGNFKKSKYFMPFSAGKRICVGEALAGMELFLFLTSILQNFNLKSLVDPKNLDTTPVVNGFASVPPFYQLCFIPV
Procedure, shortened: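 P450-Glo proluciferin substrate with CYP2C9 enzyme; 10 min RT preincubation, then NADPH regeneration 1 h at 37C; luciferin detection reagent 20 min RT, luminescence in relative luminescence units.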

[5] = target: Voltage-gated inwardly rectifying potassium channel KCNH2 (Homo sapiens) (UniProt Q12809); test: Human Ether-a-go-go-Related Gene (hERG) channel small molecule antagonists: fluorescence cell-based qHTS assay (AID 1671200); also: potency is read from the fitted curve at half-maximal effect; nearly all actives have a fitted effect of over 50% in size
UniProt Q12809, sequence (Q12809 whole entry, looked up): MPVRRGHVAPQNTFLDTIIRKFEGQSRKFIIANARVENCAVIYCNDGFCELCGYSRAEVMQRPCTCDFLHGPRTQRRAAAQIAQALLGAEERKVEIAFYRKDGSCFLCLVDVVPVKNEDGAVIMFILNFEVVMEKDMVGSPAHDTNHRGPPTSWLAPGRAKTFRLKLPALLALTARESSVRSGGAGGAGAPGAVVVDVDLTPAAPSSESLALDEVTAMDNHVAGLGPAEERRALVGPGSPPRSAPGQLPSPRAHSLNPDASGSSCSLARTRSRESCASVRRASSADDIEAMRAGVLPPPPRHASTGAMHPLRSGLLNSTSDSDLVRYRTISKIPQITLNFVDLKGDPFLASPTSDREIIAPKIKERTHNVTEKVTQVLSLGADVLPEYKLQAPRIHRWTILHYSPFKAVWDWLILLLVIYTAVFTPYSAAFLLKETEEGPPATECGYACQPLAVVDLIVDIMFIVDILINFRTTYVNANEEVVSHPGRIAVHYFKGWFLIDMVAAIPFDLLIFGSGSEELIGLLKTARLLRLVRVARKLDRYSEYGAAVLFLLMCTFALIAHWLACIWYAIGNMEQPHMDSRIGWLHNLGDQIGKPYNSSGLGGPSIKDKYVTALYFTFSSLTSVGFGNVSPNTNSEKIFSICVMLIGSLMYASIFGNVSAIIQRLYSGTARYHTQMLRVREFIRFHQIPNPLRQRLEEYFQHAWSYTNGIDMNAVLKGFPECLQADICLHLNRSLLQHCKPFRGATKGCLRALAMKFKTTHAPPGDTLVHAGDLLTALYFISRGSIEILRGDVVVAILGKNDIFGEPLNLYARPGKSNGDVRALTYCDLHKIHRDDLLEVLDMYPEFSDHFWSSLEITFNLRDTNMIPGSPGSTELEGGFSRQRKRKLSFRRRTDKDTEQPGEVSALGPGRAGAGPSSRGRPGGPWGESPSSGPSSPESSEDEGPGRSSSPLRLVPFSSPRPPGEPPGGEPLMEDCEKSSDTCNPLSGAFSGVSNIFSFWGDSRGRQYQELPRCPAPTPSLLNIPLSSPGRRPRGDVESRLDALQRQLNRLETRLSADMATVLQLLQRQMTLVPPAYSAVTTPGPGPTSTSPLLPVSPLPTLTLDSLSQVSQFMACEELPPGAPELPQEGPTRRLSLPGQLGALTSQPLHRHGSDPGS
Procedure, shortened: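 U2OS cells expressing the channel were plated at 1000 cells/well, incubated overnight at 37 C, then loaded with FluxOR II thallium-sensitive dye for 1 h at room temperature in the dark, with a further 10 min at room temperature before stimulation.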

[6] = target: Cytochrome P450 1A2 (Homo sapiens) (UniProt P05177); test: Cytochrome P450 Family 1 Subfamily A Member 2 (CYP1A2) small molecule antagonists: luciferase reporter qHTS assay (AID 1671199); also: potency is read from the fitted curve at half-maximal effect; nearly all actives have a fitted effect of over 50% in size
UniProt P05177, sequence (P05177 whole entry, looked up): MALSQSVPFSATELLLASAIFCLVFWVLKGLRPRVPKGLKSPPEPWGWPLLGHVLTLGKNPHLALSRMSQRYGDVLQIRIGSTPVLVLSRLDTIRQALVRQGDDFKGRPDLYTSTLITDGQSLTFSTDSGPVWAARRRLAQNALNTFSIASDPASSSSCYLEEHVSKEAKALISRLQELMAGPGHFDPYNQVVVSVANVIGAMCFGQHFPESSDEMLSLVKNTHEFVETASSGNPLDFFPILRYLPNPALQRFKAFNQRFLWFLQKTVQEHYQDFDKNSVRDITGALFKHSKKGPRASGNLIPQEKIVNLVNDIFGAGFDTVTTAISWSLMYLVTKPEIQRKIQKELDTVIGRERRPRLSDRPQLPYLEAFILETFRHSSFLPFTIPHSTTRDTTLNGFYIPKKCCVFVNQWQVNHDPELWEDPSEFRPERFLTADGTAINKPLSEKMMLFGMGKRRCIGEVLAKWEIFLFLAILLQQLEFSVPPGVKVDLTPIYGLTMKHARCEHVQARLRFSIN
Procedure, shortened: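 Compounds were incubated with CYP1A2 and a luminogenic proluciferin substrate for 10 min at room temperature before the reaction was started with NADPH regeneration solution. After 1 h, detection reagent was added and light output, proportional to CYP activity, was recorded.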

[7] = target: Nuclear receptor subfamily 1 group I member 2 (Rattus norvegicus) (UniProt Q9R1A7); test: Rat pregnane X receptor (rPXR) activation by small molecules, qHTS assay (AID 1346983); conditions: rPXR luciferase reporter cells, One-Glo luminescence, 24 h; max activation: hits give high values; also: % is scaled to controls: 0 for no effect and ±100 for the full control effect; nearly all actives have a fitted effect of over 20% in size
UniProt Q9R1A7, sequence (Q9R1A7 whole entry, looked up): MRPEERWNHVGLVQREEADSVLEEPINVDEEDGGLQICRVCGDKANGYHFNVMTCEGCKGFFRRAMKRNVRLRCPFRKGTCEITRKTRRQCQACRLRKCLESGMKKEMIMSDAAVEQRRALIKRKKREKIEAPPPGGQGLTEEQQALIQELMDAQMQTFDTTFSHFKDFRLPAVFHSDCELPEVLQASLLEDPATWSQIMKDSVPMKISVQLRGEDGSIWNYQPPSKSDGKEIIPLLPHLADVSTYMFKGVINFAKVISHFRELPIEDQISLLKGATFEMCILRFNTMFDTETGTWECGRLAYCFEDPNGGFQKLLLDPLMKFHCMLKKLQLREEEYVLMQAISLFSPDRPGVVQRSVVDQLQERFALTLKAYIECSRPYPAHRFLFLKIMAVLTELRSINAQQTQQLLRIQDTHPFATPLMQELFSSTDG
Procedure, shortened: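 Cell-based rPXR activation assay: rPXR cells, 2,000 per well, rested 5hr at 37 C, then exposed to compounds in DMSO for 24 hr at 37 C. Luciferase activity read by One-Glo luminescence after 30 min at room temperature.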

[8] = target: Cytochrome P450 3A4 (Homo sapiens) (UniProt P08684); test: Cytochrome P450 Family 3 Subfamily A Member 4 (CYP3A4) small molecule antagonists: luciferase reporter qHTS assay (AID 1671201)
UniProt P08684, sequence (P08684 whole entry, looked up): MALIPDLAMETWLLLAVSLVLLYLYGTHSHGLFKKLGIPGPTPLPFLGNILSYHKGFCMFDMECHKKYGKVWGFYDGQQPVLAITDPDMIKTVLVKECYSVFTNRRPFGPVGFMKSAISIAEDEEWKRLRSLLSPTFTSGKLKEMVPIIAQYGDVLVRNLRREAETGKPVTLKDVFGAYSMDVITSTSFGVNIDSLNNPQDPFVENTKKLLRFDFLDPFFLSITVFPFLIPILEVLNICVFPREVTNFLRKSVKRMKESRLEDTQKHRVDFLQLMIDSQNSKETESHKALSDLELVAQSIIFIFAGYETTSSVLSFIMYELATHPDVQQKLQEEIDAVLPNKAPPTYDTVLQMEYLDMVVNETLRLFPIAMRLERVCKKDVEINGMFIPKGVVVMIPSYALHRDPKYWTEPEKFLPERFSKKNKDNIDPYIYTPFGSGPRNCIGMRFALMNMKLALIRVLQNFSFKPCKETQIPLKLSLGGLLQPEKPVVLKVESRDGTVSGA
Procedure, shortened: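 P450-Glo CYP3A4 system with proluciferin substrate; compounds preincubated 10 min RT with enzyme-substrate mix, then NADPH regeneration added for 1 h RT. Detection reagent 20 min, luminescence read as relative luminescence units.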
Tags tell the direction and shape of the fitted curve.

With `CN1C(=O)c2ccccc2C1=O` the Potency [1] was inconclusive: 54.5 µM [rising, single point], the Potency [2] was inconclusive: 20 µM [inhibitor, full curve, poor fit] and the Potency [3] was active: 79.6 µM.
For `C=CCNc1nc(NCC=C)nc(N2CCN(C(c3ccc(F)cc3)c3ccc(F)cc3)CC2)n1`, the Potency [1] was inconclusive: 16.8 µM [cytotoxic, partial curve], the Potency [2] was inconclusive: 15.5 µM [inhibitor, partial curve] and the Potency [4] was inconclusive: 7.76 µM [inhibitor, full curve, poor fit]. For the same molecule, the Potency [5] was inconclusive: 5.35 µM [inhibitor, full curve].
For `C=C(C)C(=O)OCCOc1ccccc1`, the Potency [1] was “inactive”, the Potency [2] was “inactive” and the Potency [6] was active: 25.2 µM.
In the case of `CCC(C(=O)NC(N)=O)c1ccccc1` (configuration not stated), the Potency [1] is reported as “inactive”, the max activation [7] is reported as inactive: -2.91% and the Potency [2] is reported as “inactive”.
In the case of `CCc1cccc(C)c1`, the Potency [1] is reported as “inactive” and the Potency [2] is reported as “inactive”.
With `O=c1cc(-c2ccccc2)oc2ccc3ccccc3c12` the Potency [1] was active: 54.5 µM, the Potency [2] was active: 5.64 µM and the Potency [4] was active: 3.17 µM. The Potency [6] was active: 5.64 µM.
With `O=C(OCC(O)CO)c1ccccc1Nc1ccnc2c(C(F)(F)F)cccc12` (configuration not stated) the Potency [1] was inconclusive: 33.5 µM [cytotoxic] and the Potency [2] was active: 30.9 µM.
For `COC(=O)c1c(C)cc(O)c(C)c1O`, the Potency [1] was inconclusive: 77 µM [cytotoxic, single point], the Potency [3] was active: 7.96 µM and the Potency [4] was inconclusive: 50.2 µM [inhibitor]. For the same molecule, the Potency [8] was inconclusive: 39.9 µM [inhibitor, partial curve].
For `CC1CCCC(=O)C1=O` (configuration not stated), the Potency [1] was “inactive” and the Potency [4] was “inactive”.

Source: PubChem BioAssay (Tox21)
